Over roughly 110,000 compounds, “z-score” has its median near -0.1; the highest 2% begin near 2. The list shows a part of the results. Activity calls are given as the source filed them.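 The calls were made as follows: active = z-score in the third read window above 3 or below -3; inactive = the rest.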
Target: Metabotropic glutamate receptor 8 (Rattus norvegicus) (UniProt P70579)
Assay: mGluR8 Gi/Go-coupled signaling modulation – cell-based, rat, thallium flux, HTS, primary screen (AID 488969)
Conditions: HEK293 rat mGluR8, GIRK (G protein-gated inwardly rectifying potassium channel) thallium flux, FluoZin2; at 10 µM; stronger effect = higher value; submaximal glutamate (EC20) added with thallium

Chain of UniProt P70579 (P70579 whole entry, looked up): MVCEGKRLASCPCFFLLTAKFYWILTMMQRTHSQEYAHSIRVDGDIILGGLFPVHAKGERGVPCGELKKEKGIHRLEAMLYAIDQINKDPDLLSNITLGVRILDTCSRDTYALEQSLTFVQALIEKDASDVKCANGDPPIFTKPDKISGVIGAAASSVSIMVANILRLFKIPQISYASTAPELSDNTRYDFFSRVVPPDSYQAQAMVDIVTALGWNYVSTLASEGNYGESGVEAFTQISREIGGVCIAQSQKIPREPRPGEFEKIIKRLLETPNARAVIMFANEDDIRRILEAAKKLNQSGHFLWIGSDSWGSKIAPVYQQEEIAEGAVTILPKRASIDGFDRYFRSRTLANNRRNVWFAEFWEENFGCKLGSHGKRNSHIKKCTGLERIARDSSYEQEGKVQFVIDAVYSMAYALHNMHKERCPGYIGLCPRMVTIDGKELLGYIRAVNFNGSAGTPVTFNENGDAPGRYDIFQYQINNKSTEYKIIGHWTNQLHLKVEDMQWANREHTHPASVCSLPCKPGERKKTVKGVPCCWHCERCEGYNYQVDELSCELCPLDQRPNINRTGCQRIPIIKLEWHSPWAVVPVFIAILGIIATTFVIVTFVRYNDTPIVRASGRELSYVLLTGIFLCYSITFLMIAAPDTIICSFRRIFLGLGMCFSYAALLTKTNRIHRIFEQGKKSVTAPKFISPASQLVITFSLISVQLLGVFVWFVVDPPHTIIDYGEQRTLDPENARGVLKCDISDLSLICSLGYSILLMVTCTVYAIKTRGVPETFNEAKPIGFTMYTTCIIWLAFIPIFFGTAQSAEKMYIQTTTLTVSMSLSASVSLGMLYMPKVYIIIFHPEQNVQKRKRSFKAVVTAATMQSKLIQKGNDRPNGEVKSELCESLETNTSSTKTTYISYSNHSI

Row | Structure (SMILES) | z-score
1 | O=C(NCCc1ccncc1)Nc1ccccc1 | 0.141
2 | CCNc1nc(NC(C)C)nc(Oc2ccc(/C=N/O)cc2)n1 | 0.00305
3 | Cc1ccc(NC(=O)CC2SC3=NCCN3C2=O)cc1 (stereo not given) | 0.0627
4 | Cc1ccc(C2(C(F)(F)F)NC(=O)N3C(=C2C#N)Nc2ccccc23)cc1 (stereo not given) | 0.32
5 | O=C(CN(c1ccc(F)cc1)S(=O)(=O)c1ccc2c(c1)OCCO2)NCC1CCCO1 (stereo not given) | -0.0335
6 | COc1ccc2c(c1)c1nc(SCC(C)C)n(CCO)c(=O)c1n2C | -0.0735
7 | O=C1C=C(NCc2ccco2)C2(CCCCC2)O1 | -0.278
8 | Cc1nn(C)c(C(=O)N2CCc3ccccc32)c1Cl | 0.211
9 | COc1cc(NC(=O)Cc2nn(C)c(=O)c3ccccc23)cc(OC)c1OC | -0.201
10 | COc1ccc(C(=O)NCC2OCCc3ccccc32)cc1 (stereo not given) | 0.422
11 | Cc1ccc(C(=O)CCC(=O)CCC(=O)O)cc1 | -0.0319
12 | Cc1cc(C(=O)CSc2n[nH]c(N)n2)c(C)n1-c1cc(F)ccc1F | active: 6.6
13 | O=C(NCc1n[nH]c(=S)n1-c1cccc(Cl)c1)c1ccc(S(=O)(=O)N2CCCC2)cc1 | -0.0232
14 | O=S(=O)(NCCc1ccccc1)c1ccc(Cl)nc1 | -0.176
15 | COc1ccc(/C=N/NC(=O)c2sccc2OCc2ccc(F)cc2)cc1OC | -0.163
16 | CCOC(=O)C1=C(c2ccccc2)OC(N)=C(C#N)C1c1ccc(Br)s1 (stereo not given) | -0.219
17 | Cc1ccc(Nc2ccc([N+](=O)[O-])nc2[N+](=O)[O-])cc1 | -0.0765
18 | Cc1nc(N2CCN(Cc3ccc4c(c3)OCO4)CC2)nc2c1C(=O)CC(c1ccco1)C2 (stereo not given) | -0.971
19 | COc1cc(C(=O)NCCC(C)C)c([N+](=O)[O-])cc1OC | -0.0655
20 | CCOC(=O)C1=C2SCC(=O)N2C(N)=C(C#N)C1 | 0.0493
21 | O=C(Nc1cc(C(=O)N2CCCC2)ccc1N1CCCC1)c1ccccc1F | -2.72
22 | COc1ccccc1CNC(=O)c1ccccc1OCc1ccc(F)cc1 | -1.16
23 | CCCS(=O)(=O)n1nc(-c2ccc(OC)cc2)cc1N | -0.128
24 | CC(=O)c1c(C)[nH]c(C(=O)NCCCN2CCCC2)c1C | 0.103

Row | Structure (SMILES) | z-score
25 | CC(=O)Nc1cc2c(cc1NC(=O)Cn1nc(-c3ccccc3F)ccc1=O)OCCO2 | -0.0689
26 | CCc1cc(C(=O)NNC(=S)Nc2ccccc2C)cs1 | 1.47
27 | COc1ccccc1OCC(=O)Nc1ccc(S(=O)(=O)NC(C)=O)cc1 | -0.535
28 | Cc1c(-c2ccccc2)oc2c(C(=O)OCC(=O)Nc3cccc(F)c3)cccc2c1=O | -0.491
29 | Cc1cc(C)c(S(=O)(=O)N2CCCCC2)c(C)c1N(C)S(=O)(=O)c1ccc(Cl)cc1 | 0.175
30 | O=C(Nc1ccccn1)C1CCN(S(=O)(=O)c2cccc3nonc23)CC1 | 0.0263
31 | CCOC(=O)CN(C(=O)CSc1nnc(-c2ccncc2)n1CCCN(C)C)c1ccccc1 | 0.586
32 | CCN(CC)c1ccc(N2C(=O)/C(=C\c3cccs3)SC2=S)cc1 | -0.251
33 | Cc1ccc(S(=O)(=O)N(C)CC(=O)NC2CCCC2)cc1 | -0.315
34 | C=CCn1c(SCC(=O)NCc2ccc3c(c2)OCO3)nc2scc(-c3ccccc3)c2c1=O | -0.416
35 | Cc1ccc(S(=O)(=O)N2CCC(C(=O)N3CCC(C(=O)NCc4cccnc4)CC3)CC2)cc1 | 0.149
36 | CC(=O)N1c2c(cc(Br)cc2S(=O)(=O)N2CCN(C(=O)c3ccco3)CC2)CC1C (stereo not given) | -0.144
37 | COc1ccc(C(=O)CSc2nc3ccc([N+](=O)[O-])cc3[nH]2)cc1 | -0.643
38 | CCC(CC)NC(=O)COC(=O)c1cc(Br)ccc1Cl | 0.144
39 | Cc1ccc(NC(=O)Nc2ccccc2)c(Br)c1 | 0.0969
40 | CCN(CC)c1ccc(NC(=O)/C=C/c2cc(Br)ccc2OC)cc1 | -0.228
41 | CCN(CC)C(=O)c1sc2[nH]c(=S)n(-c3ccccc3)c(=O)c2c1C | -0.496
42 | COC(=O)C1CCN(C(=O)CCCOc2ccccc2)CC1 | -0.678
43 | CCNC(=S)N1CCN(CC(=O)Nc2ccc(Br)cc2)CC1 | -0.0221
44 | O=c1[nH]cnc2c1C(c1ccccc1[N+](=O)[O-])c1c(nc[nH]c1=O)O2 | -0.0633
45 | O=C(N/N=C/c1cc2ccccc2nc1Cl)/C(=C/c1cccs1)NC(=O)c1ccccc1 | -0.489
46 | CC(C)c1cc(C(=O)O)on1 | -0.474
47 | C=C(C)COc1ccc(-c2[nH]ncc2-c2ccccc2OC)c(O)c1 | 0.603
48 | CCN(CC)S(=O)(=O)c1ccc(C(=O)OCC(=O)Nc2ccc(-c3nc4ccc(C)cc4s3)cc2)cc1 | -0.0222

Row | Structure (SMILES) | z-score
49 | COc1ccc(-c2nnc(SCC(=O)N3CCCC3)o2)cc1OC | 0.322
50 | Cn1c(=N)n(CC(O)c2ccccc2)c2ccccc21 (stereo not given) | 1.57
51 | Clc1ccc(OCCOCCN2CCc3ccccc3C2)c(Cl)c1 | 0.0893
52 | CS(=O)(=O)N(CC(=O)Nc1ccc(Cl)c(Cl)c1)C1CCCCC1 | 0.0485
53 | Cc1ccc(Nc2ncnc3c2oc2ccccc23)cc1 | -0.215
54 | CC(C)(C)NC(=O)C1CCCN(S(=O)(=O)c2cccc3cccnc23)C1 (stereo not given) | -0.133
55 | C=CCNC(=S)NNC(=O)C(CCC(C)C)CC(C)O (stereo not given) | -0.319
56 | COc1cc(NC(=O)C2COc3ccccc3O2)c(OC)cc1Cl (stereo not given) | -1.21
57 | CO/N=C/C(=N\Nc1ccc(OC)cc1)C(=O)c1ccc(OC)cc1 | 0.105
58 | CCn1c(-c2csc(-c3ccccc3)n2)n[nH]c1=S | 0.398
59 | O=C(O)C1CC=CCC1C(=O)NCc1ccccc1 (stereo not given) | -0.00232
60 | COc1cc([N+](=O)[O-])cc(/C=N/NC(=O)c2ccc(C)nc2)c1O | -0.205
61 | COc1ccc(-c2nnc(SC(C)C(=O)Nc3cccc(Cl)c3)o2)cc1 (stereo not given) | -0.517
62 | COc1ccc(C2C3=C(CC(C)(C)CC3=O)Nc3c2c(=O)[nH]c(=O)n3Cc2ccccc2)cc1OC (stereo not given) | -0.0796
63 | Cc1cc(=O)oc2cc(OCC(=O)NCc3ccccn3)ccc12 | -0.044
64 | COc1ccc(N2CCN(C(CNC(=O)C(=O)NCCC3=CCCCC3)c3ccco3)CC2)cc1 (stereo not given) | -0.193
65 | O=C(CSc1nc2ccccc2o1)Nc1nc2ccc(Br)cc2s1 | 0.176
66 | CCOc1cccc(=O)c2c(C)n(C)c(C)c12 | -0.449
67 | O=C(O)C1CC(O)CN1S(=O)(=O)c1cccs1 (stereo not given) | 0.808
68 | O=C1/C(=C/c2ccccc2)Nc2ccccc21 | -0.773
69 | O=C(NNC(=S)Nc1cccc(C(F)(F)F)c1)c1ccccc1Cl | 0.86
70 | CCOC(=O)CCc1c(C)c(C#N)c2nc3ccccc3n2c1-n1cnc2ccccc21 | -0.146

— PubChem BioAssay AID488969 (Vanderbilt High Throughput Screening Facility, 2010)
